Reference: PubChem BioAssay AID1508623 (National Center for Advancing Translational Sciences (NCATS), 2021)
Screen size: about 48,000 compounds; about 450 (0.94%) were called active. Not shown: some 19% with an inconclusive outcome. The call rests on the fitted dose curve; in most records, active means well fitted inhibition curve with a large enough effect; inconclusive means small, poorly fitted or top-dose-only effect; inactive means no such curve, though single readings can be large or run the other way. The list shows a part of the results.

Test: Primary qHTS for Identification of Small Molecule Inhibitors of Huntingtin Promoter Activity; further: nearly all actives have a fitted effect of over 50% in size
Conditions: HEK293 HTT promoter firefly luciferase reporter (activity 0% = vehicle and -100% = no light), 24 h; series mostly up to 57.5 µM; activity change, negative = inhibition: at the top concentration
Summary of the method: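 HEK293 luciferase promoter-reporter cells (2,500/well) plated 24 h, then compounds added at up to 57.5 uM final for 24 h at 37 °C. Firefly luminescence by Dual-Glo, normalized to vehicle (0%) and zero RLU (-100%).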

Activity change, negative = inhibition, inactive:
COc1ccc(-n2ccn(Cc3ccccc3C)c(=O)c2=O)cc1 -6.32%, CCc1cc2c(cc3c(=O)n(CC(=O)NC4CCCCC4)ncn32)s1 3.08%, Cc1ccc(OCC(=O)Nc2ccc3[nH]c(=O)sc3c2)cc1 5.14%, CCOc1ccc(N(C(C)C(=O)NCCSc2ccc(C)cc2)S(C)(=O)=O)cc1 (stereo not drawn) -28.9%, COc1cccc(C(c2sc3nc(-c4ccco4)nn3c2O)N2CCN(c3ccccc3F)CC2)c1 (stereo not drawn) -10.1%, Cc1cc(C)cc(NC(=O)C(=O)NCC(c2cccnc2)N2CCN(c3ccccc3)CC2)c1 (stereo not drawn) -10.3%, COc1ccc(-c2cc(C(=O)NCCc3ccc(OC)c(OC)c3)c3ccccc3n2)cc1 8.59%, COc1ccc(NC(=O)C(C)Sc2cc(-c3ccccc3)nc(C)n2)cc1Cl (stereo not drawn) -33.7%, O=C(COc1ccc(F)cc1)Nc1ccccc1OCc1cc(=O)n2ccccc2n1 3.21%, COc1ccc(-c2noc(-c3ccc(NC4CCCCC4)c([N+](=O)[O-])c3)n2)cc1 -17.4%, CCc1nn2c(=O)cc(COC(=O)c3ccc(NC(=O)C4CCCCC4)cc3)nc2s1 13%, CCC1CCc2nc3sc(C(=O)Nc4cccc(C(F)(F)F)c4)c(N)c3cc2C1 (stereo not drawn) -24.1%, CCCc1cc(=O)oc2cc(C)c3c(C(C)(C)C)coc3c12 -3.23%, COc1cccc(NC(=O)c2ccc3[nH]c(C)cc(=O)c3c2)c1 11.3%, O=C(CCn1c(=O)c2cccn2c2cccnc21)NCc1ccccc1F 6.99%, NC(=O)c1ccccc1O -2.43%, COC(=O)c1ccc(Cn2nc(-c3ccc(C)cc3)ccc2=O)cc1 -10.3%, NC(=O)CSc1nnnn1-c1cccc(O)c1 -11.8%, Cn1c(SCc2ccccc2Cl)nc2c([nH]c3ccccc32)c1=O -6.55%, COc1cccc(CNS(=O)(=O)c2ccc(-c3cc(C(F)(F)F)on3)s2)c1 -6.39%, CCOC(=O)c1ccc(N2C(=O)Cc3cc(OCC)c(OCC)cc3C2c2ccccc2)cc1 (stereo not drawn) -10.2% [at 11.5 µM], CCOc1ccc(NS(=O)(=O)c2ccc3[nH]cc(C(=O)N4CCCCCC4)c(=O)c3c2)cc1 -1.69%, COc1ccc(Cc2nc3ccc(C(=O)NCCCN4CCN(C)CC4)cc3o2)cc1 -24.2%, Cc1ccccc1-c1nc(SCC(=O)NCC2CCCO2)c2c(=O)n(C)c(=O)n(C)c2n1 (stereo not drawn) 13.1%, COc1ccc(N2CCN(C(=O)c3sc4nc5n(c(=O)c4c3C)CCC5)CC2)cc1 -2.61%, COCCNC(=O)c1ccc2c(=O)n(CCOC)c(SCC(=O)c3c[nH]c4ccccc34)nc2c1 -23.9%, Cc1cccc(CCNC(=O)CCc2c(C)nc3ncnn3c2C)c1 4.65%, Cc1ccccc1C(=O)OCc1cc(=O)n2c(C)csc2n1 14.6%, CCc1nn(CC(=O)NCc2ccc(OC)c(OC)c2)c(=O)c2cc3sc(C)cc3n12 -7.58%, CCOC(=O)c1c(NC(=O)c2cc3nc(-c4ccccc4)cc(C(F)(F)F)n3n2)sc2c1CCC(C)C2 (stereo not drawn) -16.2%, CCCNC(=O)c1cnc2sc(N3CCCCCC3)nn2c1=O 19.9%, CCOc1ccc(C(=O)Nc2ccccc2OCc2cc(=O)n3ccccc3n2)cc1 -6.14%, COc1ccccc1OCCCCn1c(-c2ccc(Cl)cc2)nc2ccccc2c1=O -9.22%, CCOC(=O)N1CCC(=C2c3ccc(Cl)cc3CCc3cccnc32)CC1 9.07%, CCOC(=O)Cn1c(=O)n(-c2ccccc2OC)c2nc(-c3ccccc3F)nc(C(N)=O)c21 -14.8%, CN(C)c1ccc(C(=O)Nc2cccc(-c3nc4cccnc4s3)c2)cc1 -0.225%, Cc1ccc(CCNC(=O)c2cc(C)nc3c2c(C)nn3-c2ccc(C)cc2)cc1 -6.1%, COc1cccc(Cn2c(SCC(=O)N(C)c3ccccc3)nc3ccccc32)c1 -2.28%, COc1cccc2cc(-c3csc(-c4ccc(Cl)cc4)n3)c(=O)oc12 -5.15%, Cc1ccccc1CNC(=O)c1ccc(CSc2nc3cccnc3n2Cc2ccccc2)cc1 -30.3%, COC(=O)c1ccc(Cn2c(SCc3ccccc3)nc3ccncc32)cc1 -2.06%, CCc1ccc(-n2nc(C)c3c(C(=O)Nc4cc(C)c(Cl)cc4OC)cc(C)nc32)cc1 -3.44%, CCc1ccc(-c2nn(CC(=O)NCc3ccccc3)c3c2cnc2ccc(C)cc23)cc1 0%, CC(C)c1ccc(NC(=O)CCS(=O)(=O)c2cccc3nonc23)cc1 -13.9%, Cc1ccc(CCNC(=O)c2ccc(CNS(=O)(=O)c3ccccc3)cc2)cc1 -33%, O=C(CN1CCSc2ccccc21)N1CCCCC1 -12.6%, CCOc1ccccc1NC(=O)Cn1c(=O)n(-c2ccc(F)cc2)c(=O)c2c3c(sc21)CN(C(C)=O)CC3 -5.77%, CC(=O)Nc1ccc(NC(=O)c2cc3sccc3n2Cc2ccc(Cl)cc2)cc1 -23.6%, COc1cc(NC(=O)Cn2cnc3c2c(=O)n(C)c(=O)n3C)c(OC)cc1Cl -5.62%, CCOC(=O)c1c(NC(=O)/C(C#N)=C/c2ccccc2)sc2c1CCC2 -6.86%, Cc1cc(C)cc(NC(=O)Nc2ccccc2OCc2cc(=O)n3ccccc3n2)c1 12.3%, CCOc1ccc(NC(=O)c2c(NC(=O)c3ccccc3F)sc3c2CCC3)cc1 -16.6% [at 11.5 µM], CCOc1cc(/C=C(\C#N)C(=O)Nc2ccc(C)cc2)ccc1OCc1cc(=O)n2nc(CC)sc2n1 -5.16%, COc1cccc2c1Oc1ncccc1N(C(=O)CCC(=O)NC(C)C)C2 -5.82%, CCc1c(C)sc2c1CCN(C(=O)Nc1cc(Cl)c(OC)cc1OC)C2c1ccccc1 (stereo not drawn) -31.6%, COc1ccc2c(c1)CC(C(=O)NCCCN1CCN(c3ccccc3F)CC1)CO2 (stereo not drawn) -23.9%, C#CCn1cnc2c(cnn2-c2ccc(F)cc2)c1=O -16.3%, CCC(=O)N1CCc2cc(Br)cc(S(=O)(=O)CCC(=O)Nc3ccc(C)c(F)c3)c21 -5.09%, O=C(NOCC1CC1)c1ccc(F)c(F)c1Nc1ccc(I)cc1Cl -20.2%, CCn1c(C)c(C)c2cc(C(=O)NCc3ccc(OC)cc3OC)ccc21 1.8%, CCN(CC)S(=O)(=O)c1ccc(NC(=O)c2c(C)oc3ncnc(N4CCOCC4)c23)cc1 -8.84%, COc1ccc(Cl)cc1NC(=O)c1cnc(SC)nc1-c1ccccc1 -22.2%, Cc1ccccc1NC(=O)C(=O)NCC1(c2ccccc2)CCCC1 -14.4%
